In article PMC5140057 one finds binding data, which are given here for 5 molecules.

The target in experiment [1] is T1, Rrm3-myc (S. cerevisiae) (UniProt P38766).
T1 sequence: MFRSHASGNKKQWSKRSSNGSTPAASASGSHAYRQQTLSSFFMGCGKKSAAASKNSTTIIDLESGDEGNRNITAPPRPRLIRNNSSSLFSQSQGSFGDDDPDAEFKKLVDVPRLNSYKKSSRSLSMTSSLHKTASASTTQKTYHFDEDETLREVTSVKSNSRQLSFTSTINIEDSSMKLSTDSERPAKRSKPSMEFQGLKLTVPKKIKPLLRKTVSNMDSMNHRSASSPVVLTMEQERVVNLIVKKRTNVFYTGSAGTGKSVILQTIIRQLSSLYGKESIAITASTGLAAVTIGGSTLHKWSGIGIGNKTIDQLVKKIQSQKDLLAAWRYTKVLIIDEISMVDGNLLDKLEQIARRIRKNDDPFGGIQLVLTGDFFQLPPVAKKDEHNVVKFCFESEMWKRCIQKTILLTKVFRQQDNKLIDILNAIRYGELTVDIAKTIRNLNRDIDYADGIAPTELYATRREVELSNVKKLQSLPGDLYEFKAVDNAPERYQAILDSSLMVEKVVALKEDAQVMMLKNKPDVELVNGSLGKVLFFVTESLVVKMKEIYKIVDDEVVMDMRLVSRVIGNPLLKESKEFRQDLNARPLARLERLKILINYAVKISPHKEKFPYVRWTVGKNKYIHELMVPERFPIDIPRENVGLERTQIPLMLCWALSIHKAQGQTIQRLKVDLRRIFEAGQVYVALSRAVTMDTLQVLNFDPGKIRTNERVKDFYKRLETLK
Put plainly: co-IP; lysates of yeast cells expressing Orc5-V5-6xHis and myc-tagged Rrm3 alleles; magnetic beads coated with c-myc antibody, 2 h at 4°C; with or without 300 U Benzonase; blots with antibodies against myc and V5.

Experiment [2] concerns the target T2, rrm3-ΔN186-myc (S. cerevisiae) (UniProt P38766).
T2 sequence: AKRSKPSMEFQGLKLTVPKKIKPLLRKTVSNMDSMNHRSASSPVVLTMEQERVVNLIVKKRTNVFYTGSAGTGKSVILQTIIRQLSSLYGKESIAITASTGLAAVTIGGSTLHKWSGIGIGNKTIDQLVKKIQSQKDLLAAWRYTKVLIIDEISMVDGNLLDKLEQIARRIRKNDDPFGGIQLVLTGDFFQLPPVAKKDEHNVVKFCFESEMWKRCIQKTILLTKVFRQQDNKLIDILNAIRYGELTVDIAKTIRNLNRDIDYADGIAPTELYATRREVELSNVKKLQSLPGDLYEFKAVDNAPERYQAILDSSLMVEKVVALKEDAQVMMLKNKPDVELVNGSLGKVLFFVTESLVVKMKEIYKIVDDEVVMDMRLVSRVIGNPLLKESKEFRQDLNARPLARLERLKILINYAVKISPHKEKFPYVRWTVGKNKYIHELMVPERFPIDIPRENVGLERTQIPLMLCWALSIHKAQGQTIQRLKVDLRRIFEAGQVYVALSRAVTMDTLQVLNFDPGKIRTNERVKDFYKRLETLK
The experiment is described as above.

Experiment [3] has as its target T3, Orc5, subunit of the origin recognition complex (ORC), two-hybrid fusion (S. cerevisiae) (UniProt P50874).
T3 sequence: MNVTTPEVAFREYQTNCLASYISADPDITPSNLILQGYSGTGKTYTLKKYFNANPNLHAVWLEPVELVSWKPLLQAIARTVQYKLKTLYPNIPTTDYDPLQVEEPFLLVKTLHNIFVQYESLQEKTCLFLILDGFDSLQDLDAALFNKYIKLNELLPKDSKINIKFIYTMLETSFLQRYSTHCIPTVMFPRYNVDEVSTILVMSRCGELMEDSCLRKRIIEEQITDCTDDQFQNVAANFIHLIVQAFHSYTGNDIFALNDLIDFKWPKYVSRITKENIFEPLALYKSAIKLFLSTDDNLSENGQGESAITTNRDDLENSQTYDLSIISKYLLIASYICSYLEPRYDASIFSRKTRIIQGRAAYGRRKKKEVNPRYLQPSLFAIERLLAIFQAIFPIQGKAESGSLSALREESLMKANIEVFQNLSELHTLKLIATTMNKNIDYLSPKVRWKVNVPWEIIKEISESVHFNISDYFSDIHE
The experiment in a line: two-hybrid; lexA-fusion bait (pEG202) and B42-tagged prey (pJG4-5*) in yeast EGY48 with pSH18-34; growth on SC-His-Trp-Leu (LEU2 reporter) with galactose, with or without HU or MMS; colony growth after 72 hours.

These are yes or no findings as the source states them, for the method shown. For part of these data: Binding seen in cells or lysates may run through a third protein. Some binding calls cover weakened binding; strength is not graded here. Where a sequence is shown, tags or fusion partners need not be part of it.

B1: Orc5-V5-6xHis (protein, UniProt P50874 1-479)
chain: MNVTTPEVAFREYQTNCLASYISADPDITPSNLILQGYSGTGKTYTLKKYFNANPNLHAVWLEPVELVSWKPLLQAIARTVQYKLKTLYPNIPTTDYDPLQVEEPFLLVKTLHNIFVQYESLQEKTCLFLILDGFDSLQDLDAALFNKYIKLNELLPKDSKINIKFIYTMLETSFLQRYSTHCIPTVMFPRYNVDEVSTILVMSRCGELMEDSCLRKRIIEEQITDCTDDQFQNVAANFIHLIVQAFHSYTGNDIFALNDLIDFKWPKYVSRITKENIFEPLALYKSAIKLFLSTDDNLSENGQGESAITTNRDDLENSQTYDLSIISKYLLIASYICSYLEPRYDASIFSRKTRIIQGRAAYGRRKKKEVNPRYLQPSLFAIERLLAIFQAIFPIQGKAESGSLSALREESLMKANIEVFQNLSELHTLKLIATTMNKNIDYLSPKVRWKVNVPWEIIKEISESVHFNISDYFSDIHE
As for B1, the binding entry in experiment [1] and in experiment [2] was “binds” each time.

B2: rrm3-ΔN186, two-hybrid fusion (domain or fragment, UniProt P38766 187-723)
chain: AKRSKPSMEFQGLKLTVPKKIKPLLRKTVSNMDSMNHRSASSPVVLTMEQERVVNLIVKKRTNVFYTGSAGTGKSVILQTIIRQLSSLYGKESIAITASTGLAAVTIGGSTLHKWSGIGIGNKTIDQLVKKIQSQKDLLAAWRYTKVLIIDEISMVDGNLLDKLEQIARRIRKNDDPFGGIQLVLTGDFFQLPPVAKKDEHNVVKFCFESEMWKRCIQKTILLTKVFRQQDNKLIDILNAIRYGELTVDIAKTIRNLNRDIDYADGIAPTELYATRREVELSNVKKLQSLPGDLYEFKAVDNAPERYQAILDSSLMVEKVVALKEDAQVMMLKNKPDVELVNGSLGKVLFFVTESLVVKMKEIYKIVDDEVVMDMRLVSRVIGNPLLKESKEFRQDLNARPLARLERLKILINYAVKISPHKEKFPYVRWTVGKNKYIHELMVPERFPIDIPRENVGLERTQIPLMLCWALSIHKAQGQTIQRLKVDLRRIFEAGQVYVALSRAVTMDTLQVLNFDPGKIRTNERVKDFYKRLETLK
As to B2, the binding result in experiment [3] is given as “binds”.

B3: Rrm3 (wildtype), two-hybrid fusion (protein, UniProt P38766 1-723)
chain: MFRSHASGNKKQWSKRSSNGSTPAASASGSHAYRQQTLSSFFMGCGKKSAAASKNSTTIIDLESGDEGNRNITAPPRPRLIRNNSSSLFSQSQGSFGDDDPDAEFKKLVDVPRLNSYKKSSRSLSMTSSLHKTASASTTQKTYHFDEDETLREVTSVKSNSRQLSFTSTINIEDSSMKLSTDSERPAKRSKPSMEFQGLKLTVPKKIKPLLRKTVSNMDSMNHRSASSPVVLTMEQERVVNLIVKKRTNVFYTGSAGTGKSVILQTIIRQLSSLYGKESIAITASTGLAAVTIGGSTLHKWSGIGIGNKTIDQLVKKIQSQKDLLAAWRYTKVLIIDEISMVDGNLLDKLEQIARRIRKNDDPFGGIQLVLTGDFFQLPPVAKKDEHNVVKFCFESEMWKRCIQKTILLTKVFRQQDNKLIDILNAIRYGELTVDIAKTIRNLNRDIDYADGIAPTELYATRREVELSNVKKLQSLPGDLYEFKAVDNAPERYQAILDSSLMVEKVVALKEDAQVMMLKNKPDVELVNGSLGKVLFFVTESLVVKMKEIYKIVDDEVVMDMRLVSRVIGNPLLKESKEFRQDLNARPLARLERLKILINYAVKISPHKEKFPYVRWTVGKNKYIHELMVPERFPIDIPRENVGLERTQIPLMLCWALSIHKAQGQTIQRLKVDLRRIFEAGQVYVALSRAVTMDTLQVLNFDPGKIRTNERVKDFYKRLETLK
For the molecule B3, the binding entry in experiment [3] is recorded as “binds”.

B4: rrm3-ΔN230, two-hybrid fusion (domain or fragment, UniProt P38766 231-723)
chain: VLTMEQERVVNLIVKKRTNVFYTGSAGTGKSVILQTIIRQLSSLYGKESIAITASTGLAAVTIGGSTLHKWSGIGIGNKTIDQLVKKIQSQKDLLAAWRYTKVLIIDEISMVDGNLLDKLEQIARRIRKNDDPFGGIQLVLTGDFFQLPPVAKKDEHNVVKFCFESEMWKRCIQKTILLTKVFRQQDNKLIDILNAIRYGELTVDIAKTIRNLNRDIDYADGIAPTELYATRREVELSNVKKLQSLPGDLYEFKAVDNAPERYQAILDSSLMVEKVVALKEDAQVMMLKNKPDVELVNGSLGKVLFFVTESLVVKMKEIYKIVDDEVVMDMRLVSRVIGNPLLKESKEFRQDLNARPLARLERLKILINYAVKISPHKEKFPYVRWTVGKNKYIHELMVPERFPIDIPRENVGLERTQIPLMLCWALSIHKAQGQTIQRLKVDLRRIFEAGQVYVALSRAVTMDTLQVLNFDPGKIRTNERVKDFYKRLETLK
With B4, the binding result in experiment [3] is recorded as “no binding”.

B5: rrm3-ΔN212, two-hybrid fusion (domain or fragment, UniProt P38766 213-723)
chain: KTVSNMDSMNHRSASSPVVLTMEQERVVNLIVKKRTNVFYTGSAGTGKSVILQTIIRQLSSLYGKESIAITASTGLAAVTIGGSTLHKWSGIGIGNKTIDQLVKKIQSQKDLLAAWRYTKVLIIDEISMVDGNLLDKLEQIARRIRKNDDPFGGIQLVLTGDFFQLPPVAKKDEHNVVKFCFESEMWKRCIQKTILLTKVFRQQDNKLIDILNAIRYGELTVDIAKTIRNLNRDIDYADGIAPTELYATRREVELSNVKKLQSLPGDLYEFKAVDNAPERYQAILDSSLMVEKVVALKEDAQVMMLKNKPDVELVNGSLGKVLFFVTESLVVKMKEIYKIVDDEVVMDMRLVSRVIGNPLLKESKEFRQDLNARPLARLERLKILINYAVKISPHKEKFPYVRWTVGKNKYIHELMVPERFPIDIPRENVGLERTQIPLMLCWALSIHKAQGQTIQRLKVDLRRIFEAGQVYVALSRAVTMDTLQVLNFDPGKIRTNERVKDFYKRLETLK
Consider B5, for which, in experiment [3], the binding result was “no binding”.
